Reference: paper PMC4336329 (PLoS ONE, 2015)
Out of some 310,000 compounds screened, about 2,200 (0.71%) showed an effect of 50% or more. The effect is printed as a negative number. This is one part of the list.

Biological target: human ether-à-go-go-related gene (hERG) potassium channel (human, UniProt Q12809)
Experiment: primary screen, population patch clamp on CHO cells stably expressing hERG

human ether-à-go-go-related gene (hERG) potassium channel, sequence (Q12809 whole entry, looked up): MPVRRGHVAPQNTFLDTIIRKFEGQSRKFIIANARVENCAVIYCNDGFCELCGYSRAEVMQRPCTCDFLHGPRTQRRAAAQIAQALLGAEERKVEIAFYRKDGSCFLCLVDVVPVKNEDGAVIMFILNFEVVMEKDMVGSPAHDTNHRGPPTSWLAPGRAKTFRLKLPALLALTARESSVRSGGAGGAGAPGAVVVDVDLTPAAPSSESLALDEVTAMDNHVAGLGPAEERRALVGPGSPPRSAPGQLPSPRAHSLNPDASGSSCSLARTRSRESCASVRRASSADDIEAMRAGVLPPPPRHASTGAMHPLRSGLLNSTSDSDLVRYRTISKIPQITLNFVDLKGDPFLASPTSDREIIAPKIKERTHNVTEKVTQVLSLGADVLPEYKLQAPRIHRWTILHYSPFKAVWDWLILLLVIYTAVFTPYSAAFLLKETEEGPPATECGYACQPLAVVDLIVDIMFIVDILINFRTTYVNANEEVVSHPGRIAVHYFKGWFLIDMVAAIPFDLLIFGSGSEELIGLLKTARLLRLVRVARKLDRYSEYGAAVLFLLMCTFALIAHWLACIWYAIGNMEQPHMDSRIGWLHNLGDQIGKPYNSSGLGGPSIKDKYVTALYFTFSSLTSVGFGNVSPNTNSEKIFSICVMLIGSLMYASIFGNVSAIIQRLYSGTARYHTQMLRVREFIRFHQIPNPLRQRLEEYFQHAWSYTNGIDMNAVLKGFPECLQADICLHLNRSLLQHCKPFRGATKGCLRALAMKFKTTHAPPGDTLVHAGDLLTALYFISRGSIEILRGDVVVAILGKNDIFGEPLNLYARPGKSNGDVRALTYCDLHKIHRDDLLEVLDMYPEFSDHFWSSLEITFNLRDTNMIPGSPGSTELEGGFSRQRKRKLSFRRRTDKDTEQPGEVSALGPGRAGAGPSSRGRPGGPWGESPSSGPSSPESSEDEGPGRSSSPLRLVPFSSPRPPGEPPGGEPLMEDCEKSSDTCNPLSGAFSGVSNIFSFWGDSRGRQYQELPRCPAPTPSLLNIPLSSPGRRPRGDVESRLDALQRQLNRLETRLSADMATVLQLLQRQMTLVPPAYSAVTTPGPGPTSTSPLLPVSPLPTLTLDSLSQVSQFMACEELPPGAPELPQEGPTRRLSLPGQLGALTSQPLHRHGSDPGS

SMILES	hERG current change (%, negative = inhibition) at 1uM [%]
CC(C)[C@H](NC(=O)c1ccco1)C(=O)Nc1ccc(OC(F)F)cc1	3.79
CC(C)(C)C(=O)C1=C(O)C(=O)N(c2ccccc2)C1c1ccccc1 (stereo not drawn)	13
CCOc1ccc(NS(=O)(=O)c2ccc3[nH]cc(C(=O)NCC4CCCO4)c(=O)c3c2)cc1 (stereo not drawn)	12.6
Cc1cc(-c2csc(NC(=O)c3ccc(=O)n(C)n3)n2)c(C)n1CC1CCCO1 (stereo not drawn)	12.9
O=C(Nc1ccc(Cl)cc1)NC1CCCc2ccccc21 (stereo not drawn)	4.7
O=C(NCCc1c[nH]c2ccccc12)c1c(Cl)nc2sccn12	8.51
Cc1noc(NS(=O)(=O)c2ccc(NC(=O)CCn3c(=O)oc4ccccc43)cc2)c1C	2.45
CN1CCN(C(=O)CN(c2cccc(Br)c2)S(=O)(=O)c2ccccc2)CC1	6.15
COc1ccc(C2(C(=O)c3ccccc3)C(=O)c3ccccc3C2=O)cc1	13.4
COCCCNCCCCSc1ccc(Cl)cc1	-4.64
CCN(CC)CCn1c(/N=C/c2cc(Br)ccc2O)nc2ccccc21	-2.13
CC(=O)N1C(C)(C)CC(=NOC(=O)c2ccc(C)cc2)CC1(C)C	7.05
Cc1ccc(CN2CCN(c3ccccn3)CC2)s1.O=C(O)C(=O)O	-7.24
CC(=O)c1ccc(Nc2nc(N3CCOCC3)nc(N3CCOCC3)n2)cc1	3.41
O=C(COC(=O)/C=C/c1cccc(Cl)c1Cl)Nc1ccc2[nH]c(=O)[nH]c2c1	16.7
Cc1nnc(SCC(=O)Nc2ccc(N3CCOCC3)cc2)o1	11.1
CCC(C)(C)n1nnnc1C(c1ccc(C)cc1)N1CCN(C(=O)c2ccco2)CC1 (stereo not drawn)	-0.134
Cc1ccc(Sc2nc3c(c(=O)[nH]c(=O)n3C)n2CCc2ccccc2)cc1	12.8
CC(=O)Nc1nc(-c2ccc(Cl)cc2)ns1	0.391
N#Cc1ccc(C(=O)Nc2nc(-c3cccs3)c(C(=O)C(F)(F)F)s2)cc1	-18.6
CC1(C)C(c2ccccc2)=NC(c2cccnc2)N1O (stereo not drawn)	8.67
Cc1ccc(Cl)cc1N1CCN(C(=O)CNC(=O)c2ccc(Br)o2)CC1	4.64

SMILES	hERG current change (%, negative = inhibition) at 1uM [%]
CC(C(=O)N1CCCC1)N1CCN(c2ccccc2O)CC1 (stereo not drawn)	14.2
O=C(Nc1ccccc1Cl)N1CCN(c2ccc3nnc(-c4ccccc4)n3n2)CC1	-23.8
CCC1C(c2ccccc2)NC(c2ccccc2)CC1(O)c1ccc(F)cc1.Cl (stereo not drawn)	15.5
COC(=O)CSc1nnc(CNS(=O)(=O)c2ccc(Br)cc2)n1C	12.1
CCN1CCN(Cc2ccc(NC(=O)c3cc(NC(=O)c4nccnc4N)cc(OC)c3)cc2C(F)(F)F)CC1	16.7
Cc1ccc(Nc2ccccc2)cc1	13
COc1cc(OC)cc(C(=O)Nc2cccc(NC(=O)c3ccccc3)c2)c1	-9.38
CC(=O)Nc1cccc(C(=O)/C=C/c2ccco2)c1	13.5
O=C(c1ccc([N+](=O)[O-])cc1[N+](=O)[O-])n1cnc2ccccc21	5.85
Cc1cccc(NC(=O)c2nc[nH]c2C(=O)N[C@@H](C)C(=O)OCc2ccccc2)c1	12.4
O=C(CN1C(=O)C2C3C=CC(C3)C2C1=O)Nc1ccc(C(=O)O)cc1 (stereo not drawn)	7.4
O=C(Cn1ccc2ccccc2c1=O)Nc1ccc2c(c1)OCO2	12
O=[N+]([O-])c1ccccc1/C=C/C=N/n1c(-c2ccc(Cl)cc2)n[nH]c1=S	13.2
CC(C)NC(=O)NC(=O)CSc1nnc(-c2ccccc2F)n1N	6.05
COc1ccccc1NC(=O)C[n+]1ccccc1.[Cl-]	10.9
O=C(CCCCCN1C(=O)c2ccccc2C1=O)Nc1ccc(C(=O)O)cc1	11.6
Cc1cc(=O)oc2cc(OCC(=O)OC(C)C(=O)NC3CCCC3)ccc12 (stereo not drawn)	10.5
CCN(CC)S(=O)(=O)c1cc(C(=O)OCC(=O)c2ccc3c(c2)NC(=O)CO3)ccc1Cl	0.505
O=C(/C=C/c1ccc([N+](=O)[O-])s1)N1CCCCC1	0.636
O=C(NC1CCCC1)C(c1ccncc1)N(CC1CCCO1)C(=O)Cn1nnc(-c2cccs2)n1 (stereo not drawn)	3.3
Cc1ccc(NC(=O)CN(C)CC(=O)Nc2cccc(F)c2)cc1S(=O)(=O)N1CCCCCC1.O=C(O)C(=O)O	14.4
O=C(c1ccc([N+](=O)[O-])cc1[N+](=O)[O-])N1CCc2ccccc21	14.5

SMILES	hERG current change (%, negative = inhibition) at 1uM [%]
Cc1ccnc(NS(=O)(=O)c2ccc(NC(=O)c3ccc(S(=O)(=O)N(C)C)cc3)cc2)n1	12.3
CSc1ncccc1C(=O)OCC(=O)NCCC1=CCCCC1	8.39
CCO[C@H]1OC(C(=O)N2CCOCC2)=C[C@@H](c2coc3ccccc3c2=O)[C@@H]1CCCO	9.84
CC(=O)Nc1ccc(S(=O)(=O)NC(C)C(=O)NCCc2ccc(F)cc2)cc1 (stereo not drawn)	8.53
O=C(NCC1CCCO1)c1ccc(CS(=O)(=O)c2ccc(Cl)cc2)o1 (stereo not drawn)	5.31
Nn1c(SCc2nc3ccccc3[nH]2)nnc1-c1cccnc1	-2.13
C#CC(CCN1CCCCC1)(OC)c1ccccc1.Cl (stereo not drawn)	3.65
COC(=O)c1cc(NC(=O)c2ccc(-c3ccccc3)cc2)ccc1Cl	7.01
COc1cccc(NC(=O)C2CCCN(c3ncnc4c3nc3n4CCCCC3)C2)c1 (stereo not drawn)	-5.25
Cc1nnc(N(CCC#N)CCC#N)s1	17
O=C(CSC(=S)N1CCCC1)N1CCN(S(=O)(=O)c2cccc(F)c2)CC1	4.46
O=S(=O)(c1ccc2c(c1)oc1ccccc12)N1CCOCC1	-1.75
CN(C)c1nc(N)nc(CSc2nnnn2-c2ccc(F)cc2)n1	2.28
CS(=O)(=O)N(CCc1ccccc1)CC(=O)NCc1ccc(Cl)cc1	-15.1
Cc1nnc(SCC(=O)Nc2ccc3[nH]c(=O)[nH]c3c2)s1	13.2
NNC(=S)Nc1ccc(C(F)(F)F)cc1Cl	12.1
O=c1[nH]cc(COCC(F)CCl)c(=O)[nH]1 (stereo not drawn)	11.5
S=C(NCCc1ccccc1)Nc1c(Cl)cccc1Cl	12.3
CC(=O)Nc1ccc(NS(=O)(=O)c2ccc(CN3C(=O)c4cccnc4C3=O)cc2)cc1	16.3
CCOC(=O)N1CCN(C(=O)c2cn(C)c(=O)c3c2c2ccccc2n3C)CC1	7.87
COc1ccc(S(=O)(=O)N2CCN(C(=O)CCNC(=O)c3ccccc3Cl)CC2)cc1	5.17
CCn1nc(C)c(NC(=O)CC23CC4CC(CC(C4)C2)C3)c1C	13.9

SMILES	hERG current change (%, negative = inhibition) at 1uM [%]
CC(=O)Nc1nnc(-c2c(-c3ccccc3Cl)noc2C)o1	13.5
O=C(N/N=C/c1ccco1)c1cc2ccccc2o1	15
CCOC(=O)c1cnc(SC)nc1NCCOC	11.2
COc1ccccc1-c1nnc(SCC(=O)O)n1-c1ccc(C)cc1	8.66
COC(=O)C1=C(C)N=C2SC(C#N)=C(N)N2C1c1ccc(OCc2ccccc2)cc1 (stereo not drawn)	3.21
O=C(COC(=O)c1cccs1)Nc1cccc(Cl)c1	11.2
CC(C)(C)c1ccc(C(=O)Nc2cccc([N+](=O)[O-])c2)cc1	4.04
COc1ccccc1NC(=O)CSc1ccc2nnc(-c3ccc(C)cc3)n2n1	4.45
Cc1ccc(OCC(=O)OC(C)C(=O)NC2CCCCC2C)cc1C (stereo not drawn)	5.55
O=C(NNC(=O)c1cc2ccccc2cc1O)NC1CCCCC1	16.4
Cc1c(Cc2ccccc2)sc(NC(=O)c2ccco2)c1C(N)=O	13.1
OCC[C@H]1C[C@@H](O)[C@H](O)[C@@]2(CCc3ccccc3CO2)O1	0.873
Cc1ccc(C2CCN(C(=S)NC(C)(C)C)C2)cc1 (stereo not drawn)	4.67
COc1ccc(CCN=C(C)c2cc(C)c(C)cc2O)cc1OC	15.9
CCOc1ccccc1NC(=O)Cn1c(-c2ccc(Cl)cc2)noc1=O	0.524
O=C(O)C[C@H]1c2cc(F)ccc2S(=O)(=O)N1C1CCN(Cc2ccccc2)CC1	9.36
CNC(=O)COC(=O)COc1ccc2c(C)cc(=O)oc2c1	9.96
COc1ccccc1NC(=O)N1C2CCCC1CC(NC(=O)c1ccccc1)C2 (stereo not drawn)	9.36
COc1ccccc1NC(=O)Nc1nc(CC(=O)Nc2ccc(F)cc2)cs1	5.17
O=C(NC(Cc1c[nH]c2ccccc12)C(=O)O)c1ccc2c(c1)OCO2 (stereo not drawn)	15
Nc1nc(N)nc(-c2cc(Cl)ccc2Cl)n1.O=C(O)/C=C\C(=O)O	-0.0952
